This sample is rich in variants without activity.
B1: TPR 5TU (parent)
chain: GGAUCUUCUCGAUCUAACAAAAAAGACAAAUCUGCCACAAAGCUUGAGAGCAUCUUCGGAUGCAGAGGCGGCAGCCUUCGGUGGCGCGAUAGCGCCAACGUUCUCAACUAUGACACGCAAAACGCGUGCUCCGUUGAAUGGAGUUUAUCAUG

Variants of: B1
Assay: polymerase ribozyme fitness, log enrichment relative to wild type (log ratio); higher = more active; in vitro selection for triplet polymerase activity
In short: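 A single round of triplicate in vitro selection, including frozen incubation at −7 °C, was applied to PCR-built, transcribed mutant libraries of each subunit of a heterodimeric triplet polymerase ribozyme. Illumina sequencing of input and output libraries retained genotypes with ≥10 input reads and ≥1 read per output. Fitness is the base-2 logarithm of genotype enrichment divided by wild-type enrichment, from inverse-variance-weighted replicate averages.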

Polymerase ribozyme fitness (log ratio), ≤ -4.2:
GGAUCUUCUCGAUCUAACACAAAAGACAAAUCUGCCACAAAGCUUGAGAGCAUCUUCGGAUGCAGAGGCGGCAGCCUUCGGUUGCGCGAUAGCGCCGACGUUCUCAACUAUGACACGCAAAACGCGUGCUCCGUUGAAUGGAGUUUAUCAAG
GGAUCUUCUCGAUCUAACACAAAAGACAAAUCUGCCACAAAGCUUGAGAGCAUCUUCGGAUGCAGAGGCGGCAGCCUUCGGUGGCGCGAUAUCGCCAACGUUCUCAGCUAUGACACGCAAAACGCGUGCUCCGUUGAAUGGAGUUUAUCAUU
GGAUCUUCUCGAUCUAACACAAAAGACAAACCUGCCACAACGCUUGAGAGCAUCAUCGGAUGCAGAGGCGGCAGCCUUAGGUGGCGCGAUAGCGCCAAAGUUCUCAACUAUGACACGCAAAACGGGUGCUCCGUUGAAUGGAGUUUAUCAUG
GGAUCUUCUCGAUCUAACACAAAAGACAAAUCCGCCACAACGCUUGAGAGCAUCUUCGGAUGCAGACCCGGUAGCCUGCGGUGGCGCGAGAGCGCCAACGUUCUCAACAAUGACACGCAAAACGCGUGCUCCAUUGAAUGGAGUUUAUCAUG
GGAUCUUCUCGAUCUAACACAAAAGACAAAUCUGCCACAAAGCUAGAGAGCAUCUUCGCAUGCAGAGGCGGCAGCCUUCGGUGGCGCGAUACCGCCAACGUUCUUAACUAUGACACUCAAAACGCGUGCUCCGUCGAACGGAAUUUAUCAUG
GGAUCUUCUCGAUCUAACACAAAAGACAAAUCUGCCACAAAGCUUGAGAGCAAAUUCGGAUGCAGAGGCGGCGGCCUUCGGUGGGGCGAUAGCGCCAACGUUCUCAACUAUGACACGCAAAACGCGUGUUCCGUUGAAUGGAGCUUAUCAUG
GGAUCUUCUCGAUCUAACACAAAAGACAAAUCUGCCACAAAGCUUGAGAGCAUCAUCGGAUGCAGAGGCGGCAGCCUUCGGUGGCGCGAUAGCGCCAACGUUCUCAACUAUGACACGCAAAACGCGUGCUCAGUUGGAUGGAAUUGAUCAUG
GGAUCUUCUCGAUCUAACACAAAAGACAAAUCUGCCACAAAGCUUGAGAGCAUCAUCGGAUGCAGAGGCGGCAGCCUUCUGUGGCGCGAUUGCGCCAACGUUCUCCACUAUGACACGCAACACGCGUGCUCCGUUGAAUGGAGUUUAUCAUG
GGAUCUUCUCGAUCUAACACAAAAGACAAAUCUGCCACAAAGCUUGAGAGCAUCGUCGGAUGCAGAGGCGGCAGCCUUCGGUGGCGCUAUAGCGCUAACGUUCUCAACUAUGAGACGCAAAACGCGUGCUCCGUCGAAUGGAGUUUAUCAUG
GGAUCUUCUCGAUCUAACAGCAAAGACAAAUCUGCCACAAAGCUUGAGGGCAACUUCGGAUGCAGAGGCGGCAGAAUUCGGUGGCUCGAUAGCGCCAACGUUCUCAACUAUGACACGCAAAACGCGUGCUCCGUUGAAUGGAGUUUAUCAUG
GGAUCUUCUCGAUCUAACAGCAAAGACAAAUCUGCCACAAAGCUUGAGAGCAUUUUCGGAUGCAAAGGCGUCAGCCUUCGGUGGCGCGAUAGAGCCAACGUUCUCAACUAUGACACGCAAAACGCGGGCUCCGUUGAAUGGAGUUUAUCAUG
GGAUCUUCUCGAUCUAACAGCAAAGACAAAUCUGCCACAAAGCUUGAGAGCAUCUUCGGAUGCAGAGGCGGCAGCCUUCGGUGGCGCGAUAACGCCAACGUUCUCAAGUAUGACACGCAAAACGCGUGCUCCGUUGAAUGGAGUUUAUCAUG
GGAUCUUCUCGAUCUAACAGCAAAGACAAAUCUGCCACAAAGCUUGAGAGCAGCUUCGGAUGCAGAGGCGGCAGCCUUCGGUGGCGCGAUAGCGCCAACGUGCUCCACUAUGACACGCAAAACGCGUGAUCCGUUGAAUGGAGUUUAUCAUG
GGAUCUUCUCGAUCUAACAGGAAAGACAAAUCUGCCACAAAGCUUGAGAGCAUCUUCGGAGGCAGAGGCGGCAGCCUUCGGUGGCGCGAUAGCGGCAACGUUCUCGACUAUGACACGCAAAACGCGUGCUCCGUUGUAUGGAGUUUAUCAUG
GGAUCUUCUCGAUCUAACAGUAUAGACAAAUCUGCCACAAAGCUUGAGAGCAUCUUCGGAUGCAGAGGCGGCAGCCUUCGGUGGCGAGAUCGCGACAACGUUCUCAACUAUGACACGGAAAACGCGUGCUCCUUAGAAUGGAGUUUAUCAUG

Polymerase ribozyme fitness (log ratio), -1.69:
GGAUCUUCUCGAUCUAACACAAAAGACAAAUCUGCCACAAAGCUUGAGAGCAACUUCGGAUGCAGAGGCGGCAGCCUUCGGUGACGCGAUAGCGCCAACGUUCUCAACUAUGACACGCAAAACGCGUGCUCCGUUGAAUGGAGUUUAUCAUG

Polymerase ribozyme fitness (log ratio), -1.36:
GGAUCUUCUCGAUCUAACACAAAAGACAAAUCUGCCACAAAGCUUGAGAGCAUCUUCGGAGGCAGAGGCGGCAGCCUUCGGUGGCGCGAUAGCGCCAACGUUCUCAACUAUGACACGCAAAACGCGUGCUCCGUUGAAUGGAGUUUAUCAUG

Polymerase ribozyme fitness (log ratio), -0.812:
GGAUCUUCUCGAUCUAACAGCAAAGACAAAUCUGCCACAAAGCUUGAGAGCAUCUUCGGAUGCAGAGGCGGCAGCCUUCGGUGGCGCGAUAGCACCAACGUUCUCAACUAUGACACGCAAAACGCGUGCUCCGUUGAAUGGAGUUGAUCAUG

Polymerase ribozyme fitness (log ratio), -2.76:
GGAUCUUCUCGAUCUAACACAAAAGACAAAUCUGCCACAAAGCUUGAGAGCAUCUUCGGAUGCAGAGGCGGCAGCCUUCGGUGGCGCGAUAGCUCCAACGUUCUCAACUAUGACACGCAAAACGCGUGCUCCGUUGAAUGGAGUUUAUCAUC

Reference: the RNAGym collection of RNA variant scans (doi:10.1073/pnas.2313332121)
